Measured values reported in PubChem BioAssay AID624417 (National Center for Advancing Translational Sciences (NCATS), 2012).
Out of some 410,000 compounds screened, about 6,400 (1.6%) were called active. The shares of active, inactive and inconclusive entries below differ from those in the screen. The call rests on the fitted dose curve; in most records, active means well fitted inhibition curve with a large enough effect; inconclusive means small, poorly fitted or top-dose-only effect; inactive means no such curve, though single readings can be large or run the other way. A potency beside an inconclusive call is a rough fit, not a confirmed value.

These compounds were tested against Glucagon-like peptide 1 receptor (Homo sapiens) (UniProt P43220) (assay: qHTS of GLP-1 Receptor Inverse Agonists (Inhibition Mode)). Conditions: HEK293 GLP-1R CRE-luciferase, luminescence, 24 h, GLP-1R form is constitutively active; activity change, negative = inhibition: at 38.3 µM (top of the series) unless noted.
How it was run: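 Seeding at 200 cells/uL, 12 h culture, 24 hr compound treatment, then luciferase reagent and a luminescence read; cells are HEK293 stably expressing a constitutively active GLP-1R plus cAMP-responsive luciferase.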
Further: nearly all actives have a fitted effect of over 55% in size.
On the % scale 0 is the no-effect control and ±100 the full control effect; potency means the concentration at half of the fitted maximal effect; tags describe the fitted curve by direction and shape.

Chain of UniProt P43220 (P43220 whole entry, looked up): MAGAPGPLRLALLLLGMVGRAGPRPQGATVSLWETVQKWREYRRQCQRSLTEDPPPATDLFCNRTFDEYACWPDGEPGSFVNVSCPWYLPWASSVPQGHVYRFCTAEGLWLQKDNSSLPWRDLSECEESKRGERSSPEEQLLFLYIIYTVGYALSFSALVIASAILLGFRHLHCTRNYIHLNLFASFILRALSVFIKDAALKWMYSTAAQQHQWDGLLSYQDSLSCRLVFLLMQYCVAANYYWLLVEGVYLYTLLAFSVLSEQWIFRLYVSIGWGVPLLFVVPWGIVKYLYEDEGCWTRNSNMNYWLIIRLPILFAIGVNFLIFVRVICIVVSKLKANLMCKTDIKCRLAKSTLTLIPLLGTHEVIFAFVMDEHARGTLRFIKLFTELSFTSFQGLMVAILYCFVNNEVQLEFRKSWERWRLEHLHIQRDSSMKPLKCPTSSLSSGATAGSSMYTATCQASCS

SMILES | Potency | activity change, negative = inhibition
Cc1nn(C)cc1CN(C)C(=O)c1cc(-c2ccccc2)nc2ccc(Br)cc12 | inconclusive: 8.91 µM [inhibitor, partial curve, poor fit] | 
COc1ccc(C(C)(C)C)cc1NC(=O)C1CC(=O)N(C2CCCC2)C1 (configuration not stated) | inconclusive: 10 µM [inhibitor, single point] | 
O=C(Nc1cccc(C(F)(F)F)c1)c1cnn(-c2cccc(F)c2)c1C1CCNCC1 | inconclusive: 8.91 µM [inhibitor, single point] | 
O=C(NC1CCCCC1)c1ccc(OC2CCN(Cc3ccccn3)CC2)cc1 | inconclusive: 31.6 µM [inhibitor, single point] | 
Clc1cccc(-c2nc3ccc(Br)cn3c2Cc2ccccc2)c1 | inconclusive: 10 µM [inhibitor, single point] | 
COC(=O)c1cc(S(=O)(=O)N2c3ccccc3CC2C)c[nH]1 (configuration not stated) | inconclusive: 3.98 µM [inhibitor, partial curve] | 
CCOC(=O)/C(C#N)=C/c1cc(C)n(-c2ccc(C)cc2)c1C | inconclusive: 8.91 µM [inhibitor, partial curve, poor fit] | 
Cc1ccccc1CSc1cn(CC(=O)N2CCCCC2)c2ccccc12 | inconclusive: 10 µM [inhibitor, partial curve, poor fit] | 
Cc1cccc(N2C(=O)CN(Cc3cccs3)C2=S)c1 |  | inconclusive: -39% [inhibitor] [at 7.66 µM]
COc1cccc(C(=O)C2CCCN(Cc3cn(C)nc3-c3ccccc3)C2)c1 (configuration not stated) | inconclusive: 11.2 µM [inhibitor, partial curve] | 
Cc1ccc(-c2ccc(CN3C(C)C(=O)N(Cc4cn(CCC5OCCCO5)nn4)CCS3(=O)=O)cc2)cc1 (configuration not stated) | inconclusive: 28.2 µM [inhibitor, single point] | 
CCN(CC)C(C(=O)Nc1ccc(C(C)C)cc1)c1ccc2c(c1)OCO2 (configuration not stated) | active: 7.08 µM | 
CC1Cc2ccccc2N1C(=O)CSc1nc2ccc(NC(=O)COc3ccccc3)cc2s1 (configuration not stated) | inconclusive: 1.41 µM [inhibitor, full curve] | 
CC(CCc1ccc(O)cc1)NC1c2ccccc2-c2ccccc21 (configuration not stated) | inconclusive: 28.2 µM [inhibitor, single point] | 
COC(=O)c1cc2oc(C)cc2n1CC(=O)Nc1ccc(C(C)C)cc1 | inactive | 
CC(C)COc1nc2ccccc2nc1C(C#N)C(=O)NC1CCCCC1 (configuration not stated) | inconclusive: 7.94 µM [inhibitor, partial curve, poor fit] | 
Cc1ccc(N2CCN(CC(O)COc3ccc([N+](=O)[O-])cc3)CC2)cc1 (configuration not stated) | inconclusive: 28.2 µM [inhibitor, single point] | 
COc1ccccc1N1CCN(C(=O)CCCN2C(=O)c3cccc4cccc(c34)C2=O)CC1 | inconclusive: 28.2 µM [inhibitor, single point] | 
Cc1ccc(CNCc2ccccc2Cl)s1 | inconclusive: 28.2 µM [inhibitor, single point] | 
O=C1/C(=C\c2cccnc2)CCc2ccccc21 | inconclusive: 11.2 µM [inhibitor, single point] | 
COc1ccc(CNC(=S)Nc2cc(C)cc(C)c2)cc1 | inconclusive: 7.08 µM [inhibitor, partial curve, poor fit] | 

SMILES | Potency | activity change, negative = inhibition
CCO[C@H]1OC(C(=O)N2CCN(Cc3ccccc3)CC2)=C[C@@H](c2ccccc2)[C@@H]1CCCO | inconclusive: 7.08 µM [inhibitor, partial curve, poor fit] | 
Cc1ccc(Nc2nc(C)c(CCC(C)C)c(=O)[nH]2)cc1 | inconclusive: 2.82 µM [inhibitor, full curve, poor fit] | 
C=CCOC(=O)C1=C(C)NC(C)=C(C(=O)OCC=C)C1c1ccc(C)o1 | inconclusive: 11.2 µM [inhibitor, partial curve, poor fit] | 
CCOC(=O)C1=C(CN2CCN(c3ccccc3OC)CC2)NC(=O)NC1c1ccccc1 (configuration not stated) | inactive | 
Cc1csc(NC(=O)c2cn3ccccc3n2)n1 | inconclusive: 1 µM [inhibitor, full curve, poor fit] | 
COC(=O)c1cc(NC(=O)c2cc(-c3ccc(OC)cc3)oc2C(F)(F)F)ccc1N1CCOCC1 | inconclusive: 11.2 µM [inhibitor, partial curve, poor fit] | 
CC(C)Cn1c(N)c(C(=O)COC(=O)c2cc(C(F)(F)F)nc3ccccc23)c(=O)n(C)c1=O | inactive | 
Cc1ccccc1NC(=O)Cc1nc(COC(=O)Cc2c(F)cccc2Cl)cs1 | inconclusive: 14.1 µM [inhibitor, single point] | 
CCCOc1ccc(/C=C/C(=O)NCc2ccccc2)cc1 | inconclusive: 25.1 µM [inhibitor, single point] | 
CCOc1ccc(NC(=O)CCSc2nc3c(c(CC)c2C#N)C(=O)CC(C)(C)C3)cc1 | inconclusive: 3.55 µM [inhibitor, partial curve, poor fit] | 
CCOC(=O)Cn1c(=O)n(CC2CCCO2)c2nc(-c3ccccc3)nc(C(N)=O)c21 (configuration not stated) | inactive | 
COc1ccc(C(=O)Nc2ccc(N(C)Cc3ccccc3)c(C(=O)O)c2)cc1 | inactive | 
CCCc1c(-c2cccc(Cl)c2)ncn1CCc1ccccc1OC | inconclusive: 10 µM [inhibitor, partial curve, poor fit] | 
COc1ccc(C2=CCCCCC2)c(OC)c1OC | inconclusive: 8.91 µM [inhibitor, single point] | 
CCN(c1ccc(OC)cc1)S(=O)(=O)N1CCCC(C(=O)NCc2ccc(OC(C)C)cc2)C1 (configuration not stated) | inconclusive: 12.6 µM [inhibitor, partial curve, poor fit] | 
Cc1ccccc1OCC(O)CN1CCN(c2ccc(Cl)cc2)CC1 (configuration not stated) | inconclusive: 11.2 µM [inhibitor, partial curve, poor fit] | 
CC(C)[C@H](NC(=O)c1ccccc1)C(=O)N1CCc2ccccc21 | inconclusive: 0.501 µM [inhibitor, full curve, poor fit] | 
Cc1oc(-c2ccccc2Cl)nc1CS(=O)(=O)CC(=O)NCc1ccc(F)cc1 | inconclusive: 2.24 µM [inhibitor, single point] | 
COCCc1ccc(OC2(C)CCN(Cc3cccc(OCOC)c3)C2)cc1 (configuration not stated) | inconclusive: 11.2 µM [inhibitor, partial curve, poor fit] | 
O=C(Cc1cccs1)NNC(=S)NCc1ccc(Cl)cc1 | inconclusive: 28.2 µM [inhibitor, single point] | 
Cc1cc(SCC(=O)c2ccccc2)nc(C)n1 | inactive | 

SMILES | Potency | activity change, negative = inhibition
CC(=O)Nc1ccc(-c2ccnc3c2CC(C)(C(=O)NCC2CCOCC2)O3)cc1 (configuration not stated) | inconclusive: 14.1 µM [inhibitor, single point] | 
Clc1cccc(CSc2nnc(-c3c[nH]c4ccccc34)o2)c1 | inconclusive: 14.1 µM [inhibitor, single point] | 
CCn1nc(C(=O)OCC(=O)NCC(C)C)c2ccccc2c1=O | inactive | 
CCNC(=S)N(Cc1ccc2c(c1)OCO2)C1CC(=O)N(c2ccc(F)cc2)C1=O (configuration not stated) | inconclusive: 14.1 µM [inhibitor, partial curve, poor fit] | 
Cc1ccc(NC(=O)Nc2ccc3c(c2)nc(C)n3C)cc1 | inconclusive: 28.2 µM [inhibitor, single point] | 
CCn1cc([N+](=O)[O-])c(C(=O)N2N=C(c3cccc4ccccc34)CC2c2ccccc2O)n1 (configuration not stated) | inconclusive: 11.2 µM [inhibitor, partial curve, poor fit] | 
COc1ccc(NC(=O)CN(C)C(=O)c2cc(-c3ccc(OC)cc3)nc3ccccc23)cc1 | inconclusive: 11.2 µM [inhibitor, partial curve, poor fit] | 
COc1cc(CNC(=O)Nc2nc(C(N)c3ccccc3)cs2)cc(OC)c1OC (configuration not stated) | inactive | 
CC(=O)Cc1nsc(NC(=O)c2csc3c2CCCC3)n1 | inconclusive: 28.2 µM [inhibitor, single point] | 
O=C(CSC1CN(C(c2ccccc2)c2ccccc2)C1)N/N=C/c1ccccc1 | inconclusive: 11.2 µM [inhibitor, partial curve, poor fit] | 
COc1cc(OC)nc(Nc2nc(C(N)c3ccccc3)cs2)n1 (configuration not stated) | inconclusive: 10 µM [inhibitor, single point] | 
O=[N+]([O-])c1ccccc1/C=C/C=N/Nc1ccc(S(=O)(=O)Nc2ccc(Cl)cc2)cc1[N+](=O)[O-] | inconclusive: 5.62 µM [inhibitor, full curve, poor fit] | 
O=c1c(=O)n(-c2ccc(F)c(F)c2)ccn1Cc1ccc(F)cc1Cl | inactive | 
O=C(Nc1ccccc1F)N(CCCN1CCOCC1)Cc1cc2cc3c(cc2[nH]c1=O)OCCO3 | inactive | 
COc1ccc(C(=O)Nc2cccc(-c3nnc(-c4ccco4)o3)c2)cc1 | inconclusive: 28.2 µM [inhibitor, single point] | 
COc1ccc(C)cc1NC(=O)C1CCCN(c2ncnc3onc(C)c23)C1 (configuration not stated) | inactive | 
COc1ccc(C(NC(=O)/C=C/c2ccco2)c2ccc(OC)c(OC)c2)cc1OC | inactive | 
Cc1ccc(C)c(N2CCN(C(=S)Nc3ccc4nc(N5CCOCC5)cc(C)c4c3)CC2)c1 | inconclusive: 7.94 µM [inhibitor, partial curve, poor fit] | 
Cc1ccc(F)c(C2=CC(=O)C[C@H](c3ccc(F)cc3)C2)c1 | inconclusive: 28.2 µM [inhibitor, single point] | 
Cc1ccc(-c2nnc(NC3CCCC3)s2)cc1 | inconclusive: 28.2 µM [inhibitor, single point] | 
